# From the supplement of paper PMC7125110
# ± gives the standard error. Variants at the floor of the assay are shown more often than the library holds them.
# B1: glmS ribozyme (parent)
# chain: AUAAAAGCGCCAGAACUACAGAAAUGUAGUUGACGAGGAGGAGGUUUAUCGAAUUUUCGGCGGAUGCCUCCAAA
# Variants of: B1
# Assay: self-cleavage kobs at 2500 uM GlcN6P; higher = faster cleavage; RNA array
# Conditions: with glucosamine-6-phosphate
# How it was run: (§1)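 Barcoded ribozyme variants, transcribed in situ by E. coli RNA polymerase on sequenced MiSeq chips, were followed via a hybridised Cy3 probe at 37 °C. Glucosamine-6-phosphate ranged from 40 μM to 10 mM in HEPES/KCl/Mg(OAc)2 buffer. kobs came from decay fits to per-tile medians, and kcat and KM from weighted Michaelis–Menten fits.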
row,Variant,self-cleavage kobs at 2500 uM GlcN6P [s⁻¹]
1,C10A U31C G38U,< 1e-05
2,C11A G13A G29U G32A G35A C67U C68G,< 1e-05
3,A12U G32U G62U,< 1e-05
4,C10A G29C A42U A52U,< 1e-05
5,G13C U47A U57G U65C,< 1e-05
6,C11A G13U A14C G37C C71U,< 1e-05
7,A12G G44U G51C C70A,< 1e-05
8,A14C A53C C67G,< 1e-05
9,C10A A12C G35A C67G,< 1e-05
10,C10U G38C G40U,< 1e-05
11,G9U C34A G38U U69G,< 1e-05
12,G9A A12C G59C,< 1e-05
13,G9C U49A A52U,< 1e-05
14,G13U C16A G44C G51U U57G,< 1e-05
15,G13A U31G,6.35e-05 ± 1.5e-05
16,C10U A14C C34A,< 1e-05
17,G13A U56C,8.37e-05 ± 2e-05
18,C10G C61U A64U U65G,< 1e-05
19,C11U U49A A53U U57C G59A,< 1e-05
20,C8U C10U G13U G29C C58U C61A C67A,0.000532 ± 0.00015
21,G9A U55G U65A,< 1e-05
22,C8G U31A U49A,< 1e-05
23,A14C G35U G66C,< 1e-05

row,Variant,self-cleavage kobs at 2500 uM GlcN6P [s⁻¹]
1,G13U U46A U49A,< 1e-05
2,G13C A33C G38U,< 1e-05
3,G13A G40U G63A C67G,< 1e-05
4,A12G C34U A52U,< 1e-05
5,G13U U47G C67A,7.8e-05 ± 1.6e-05
6,C8U C11G G40C G51A A64C,< 1e-05
7,C10G A39G G51A,< 1e-05
8,A12C G13U U49A A52U U57A,< 1e-05
9,G9C C11A G63C,< 1e-05
10,G9A C11U G13U C34A,< 1e-05
11,C10U A15G G44U C50G,< 1e-05
12,C11G U30G A48C U55A,< 1e-05
13,C10A G35A G60U C71A,< 1e-05
14,C8U U31A G43U U55A,< 1e-05
15,G13C A14G G37U G59C,< 1e-05
16,C10G A12G U47G U54C C68U,< 1e-05
17,A12C G37C,2.27e-05 ± 8.6e-06
18,C10U A15C G60U C67U,< 1e-05
19,G13U G37C G40C G44U U54C G66C,< 1e-05
20,A12G A33U A39G U65G,< 1e-05
21,C10U C16A A48U U65C,< 1e-05
22,C8U G13A A15G,< 1e-05
23,C10G U47G G51A,< 1e-05

row,Variant,self-cleavage kobs at 2500 uM GlcN6P [s⁻¹]
1,C10U U30A G43C U46A U54C C67A,< 1e-05
2,C10U G32U G35C U47G U49G G60U,< 1e-05
3,C11U G13U,4.88e-05 ± 9.5e-06
4,C10A A12U C50U G59C,< 1e-05
5,G13U C34U G44A U65G,< 1e-05
6,G13C G32C G35U U55C U56G C71G,< 1e-05
7,G13C C16A G32U G41U G44U U55A,< 1e-05
8,C8U G35U U45C A53U U56G G63A U65G C71U,< 1e-05
9,C11U U54C C61G,< 1e-05
10,C10G G44U C50G,< 1e-05
11,C8G G59C C68G,< 1e-05
12,A12U G13A G38U,< 1e-05
13,C11A G37C U55A U65C,< 1e-05
14,C10G G35U G38A,< 1e-05
15,G9A A33U G43A U46G G59U,< 1e-05
16,C10G C16A A39C A52U,< 1e-05
17,G9A A36U A53G,< 1e-05
18,C8U C34U U55G,< 1e-05
19,C10U G13C U31A G51U G63U G66U,< 1e-05
20,C8U A15U A36C,< 1e-05
21,C10A G35A U47C U65A,< 1e-05
22,C11U G35A C70A,< 1e-05
23,C8U A15G A42G A48G C50U,< 1e-05

row,Variant,self-cleavage kobs at 2500 uM GlcN6P [s⁻¹]
1,G9U U54C G63C,< 1e-05
2,C10U G29U C61A C67G,0.000121 ± 2.9e-05
3,A12G G43C U45A C50U C67A,< 1e-05
4,A12C A48C G66A C68G,< 1e-05
5,G9C A14U G51A,< 1e-05
6,A12U C34U G38A C50G,0.000122 ± 3e-05
7,C11U G60A G62U C67G,< 1e-05
8,A12G G29U U47G,6.74e-05 ± 1.5e-05
9,C10U G44U G66A,< 1e-05
10,C8G U47C C61U,< 1e-05
11,A14C C16A G63A,< 1e-05
12,G9A A12C C58A,< 1e-05
13,G13U A14G G38A,< 1e-05
14,A14C C34G G62U,< 1e-05
15,G9A A15C A48U G63C C67U,< 1e-05
16,A12G G63U U65A,< 1e-05
17,G9A A48U G66C,< 1e-05
18,A12C A15G G29C A52G,< 1e-05
19,A12U G41C C61U,< 1e-05
20,C10A A64C C67G,8.61e-05 ± 3.1e-05
21,C10U C16A A39C U57A,< 1e-05
22,C10G C34A A52U,< 1e-05
23,C10A A12G G13U U45G U56G,< 1e-05

row,Variant,self-cleavage kobs at 2500 uM GlcN6P [s⁻¹]
1,A12G C16A U30G G38A U46C,< 1e-05
2,C10U A15G U31A G32U U65G,< 1e-05
3,C10U U31G U49A G62U,< 1e-05
4,G9A A12U A42G G59U,< 1e-05
5,A12G G37C A64G,< 1e-05
6,C8U C16G G29C,< 1e-05
7,C10U G40U U47A G51U C61U,< 1e-05
8,A12G A14C U30C C70G,< 1e-05
9,C8U C50A G59C U65G C70U,< 1e-05
10,A14C G35A A52G,< 1e-05
11,A12G G59U C68U,< 1e-05
12,C10U G43U A64G,< 1e-05
13,G9U G13U G43C G44U C58G U65G,< 1e-05
14,A12G G35U A39C G60A C68U,< 1e-05
15,C11G A36G G38U U69C,< 1e-05
16,G9U A39G G44C C67G,< 1e-05
17,C11A G35C G44U G63A U65G,< 1e-05
18,G9U A52C A53G,< 1e-05
19,G9U U49C C50G,< 1e-05
20,C10U G29C C61U,< 1e-05
21,C8U C11U G13C U65C,< 1e-05
22,G13A A14C C68G C70A,< 1e-05
23,C11G A15U A42U U46C,< 1e-05

row,Variant,self-cleavage kobs at 2500 uM GlcN6P [s⁻¹]
1,C10G U30G A42U A52U U54G,< 1e-05
2,G9U G51U U57A C71A,< 1e-05
3,G13U C61G C71U,< 1e-05
4,A14C G38A G43A U55G,< 1e-05
5,C11U U46G A52U G66A,< 1e-05
6,G9U A39G A53U,< 1e-05
7,A12C G43U,3.6e-05 ± 8e-06
8,G9C A12C A14G U31C A36U G44U,< 1e-05
9,G13A G41C G51U C61A,< 1e-05
10,C10A A12U G38U G44C,< 1e-05
11,G9U U30C G51U,< 1e-05
12,C11U C34A G44A,< 1e-05
13,G9A C10U U31C G44A,< 1e-05
14,C11A G13A A36C U49A G62U,< 1e-05
15,C8G G51C C70G,< 1e-05
16,G13U C58U G59C,< 1e-05
17,A12U C16U C70A,0.000361 ± 0.00013
18,C11A U31A A33G,< 1e-05
19,C8U A14G A42C U46G U49A G66A,< 1e-05
20,C8U U57A U69G,< 1e-05
21,G9C U30G A42C C70G,< 1e-05
22,G13A G35C A36U C71G,< 1e-05
23,C10A G51C G63U,< 1e-05

row,Variant,self-cleavage kobs at 2500 uM GlcN6P [s⁻¹]
1,C11G G43U C58A,< 1e-05
2,G13A A39C A42G C70U,< 1e-05
3,C10A C11G U30A C34G C70A,< 1e-05
4,C8U U56G A64G,< 1e-05
5,G13C A36U A48C,< 1e-05
6,G13C U45G C61G,< 1e-05
7,C10U G44A U45C C68G,< 1e-05
8,G9U G38U,< 1e-05
9,C10G A33U G51U C67G,< 1e-05
10,A14C A42U U45G U46C G63C A64G,< 1e-05
11,G9C A33C G37A C67U,< 1e-05
12,G9A C16A U55G,< 1e-05
13,C11A G44U A52U C68U,< 1e-05
14,C10A C11A A39C,< 1e-05
15,A12U A36C G40U U46A C61G,< 1e-05
16,A12G A42C A48C C50G C71G,< 1e-05
17,A12G U45A C70G,0.000143 ± 3.9e-05
18,C11G G32A U56G,< 1e-05
19,G9C G13A,< 1e-05
20,A12U G35U A42C U46A C68A,< 1e-05

# Variants of: B1
# Assay: self-cleavage kobs at 10000 uM GlcN6P; higher = faster cleavage; RNA array
# Conditions: with glucosamine-6-phosphate
# How it was run: as §1
row,Variant,self-cleavage kobs at 10000 uM GlcN6P [s⁻¹]
1,G13A U31G,0.000153 ± 2.2e-05
2,G13A U56C,0.00021 ± 3.7e-05
3,A12C G37C,5.03e-05 ± 7.5e-06
4,C11U G13U,5.47e-05 ± 8.2e-06
5,C8U G35U U45C A53U U56G G63A U65G C71U,< 1e-05
6,C10G G35U G38A,< 1e-05
7,G9A A33U G43A U46G G59U,< 1e-05
8,C8U A15G A42G A48G C50U,< 1e-05
9,C10U G44U G66A,< 1e-05
10,C10G C34A A52U,< 1e-05
11,G9U U49C C50G,< 1e-05
12,A12C G43U,4.74e-05 ± 9.2e-06
13,C8U U57A U69G,0.000575 ± 0.00016
14,G13A G35C A36U C71G,< 1e-05
15,C10U G44A U45C C68G,< 1e-05
16,A12G A42C A48C C50G C71G,< 1e-05
17,G9C G13A,< 1e-05
